# Laboratory results reported in ChEMBL document CHEMBL4888484, “Replenishing the malaria drug discovery pipeline: Screening and hit evaluation of the MMV Hit Generation Library 1 (HGL1) against asexual blood stage Plasmodium falciparum ,using a nano luciferase reporter read-out” (2022).
# Screen size: about 150,000 compounds; about 540 (0.36%) showed an effect of 50% or more. Some of the results follow.
# System: Plasmodium falciparum
# Test: Primary screen in NF54 nanoGlo assay, in single point, at 2uM, 72h; a lower Z score goes with more inhibition
# Format: functional, Erythrocyte
# Settings: timepoint 72 hour
Compound,% Inhibition [%],Z score
Cc1n[nH]c(C)c1CN1CCN(C(=O)c2ccccc2OC(F)F)CC1,8,-1.54
Cc1ccc(CNC(=O)Nc2cccc(-c3nnco3)c2)cc1,-23,2.29
O=C(Nc1ccnn1C1CCC1)c1ccc(-c2cn[nH]c2)cn1,-10,1.42
CCCCn1nc(C)cc1NC(=O)[C@@H]1CC(=O)Nc2c(OC)cccc21,-10,0.91
COCCn1nc2n(c1=O)CCC1(CC2)CCN(C(=O)CCc2c(C)nn(C)c2C)CC1,-3,0.49
CCc1nc2cc(-c3ccncc3)cnc2[nH]1,-8,1.46
CC(C)C(=O)NCCc1csc(C2CCN(C(=O)c3ccco3)CC2)n1,-11,1.37
O=C(CCc1ccccc1)N1CCCN(c2nc(C3CC3)no2)CC1,-2,0.17
COc1cnccc1-c1noc(CCCc2ncc(C)o2)n1,-10,1.28
CCc1nccn1CCNC(=O)Nc1cccc2nn(C)nc12,2,-0.31
c1csc(-c2cc(CN3CCCC[C@@H]3Cn3cncn3)no2)c1,-9,1.35
CC(Cn1cccn1)NC(=O)C1CCCO1 (stereo unspecified),-16,1.38
O=C(NC1CCN(c2ccccc2C(=O)N2CCCCC2)CC1)c1ccco1,3,-0.59
N#Cc1ccc(OC[C@H]2C[C@@H](O)C2)cc1F,5,-0.62
O=C(Cn1cc(C(=O)c2ccco2)c2ccccc21)NC1CCCCC1,3,-0.37
Cc1nc(C)c(F)c(N2CCN(Cc3ccnn3C)CC2)n1,-9,1.53
C=CCn1cc(CN(CC)Cc2nc(CC)no2)c(C)n1,-6,0.82
CCNc1nc(CN(CCN2CCOCC2)CC(=O)OC)cs1,19,-2.46
CCn1cc(-c2c(-c3ccccc3)ncn2Cc2ccc(CO)cc2)cn1,3,-0.26
COc1ccc(-n2cccn2)cc1S(=O)(=O)N[C@H]1COC[C@@H]1OC,1,-0.11
O=C(CCCn1cnnn1)N1CCc2[nH]c3ccc(OC(F)(F)F)cc3c2C1,6,-0.69
COc1nn(C)cc1CNC(=O)C1(c2ccccc2C)CCCC1,-5,0.85

Compound,% Inhibition [%],Z score
Cc1cnc(CCNS(=O)(=O)Cc2cc(Cl)cc(Cl)c2)s1,0,0.06
NS(=O)(=O)c1cccc(Cl)c1Cl,2,-0.33
O=C(Cc1c(F)cccc1Cl)N1CC(Nc2cccnn2)C1,-9,1.06
Cc1cc(C(=O)N[C@@H](Cn2nccn2)c2ccccc2)no1,-10,1.62
Cc1nc(C)c(C(=O)N2CC3(CCCCC3)[C@@H]2C(C)C)o1,-5,0.75
O=C(Cc1ccc(F)cc1)N1CCN(c2cc(C(F)(F)F)ncn2)CC1,2,-0.35
COC(=O)c1sc(=S)n(Cc2ccccc2)c1C,-11,1.23
CN(C)C(=O)N(CCN1CCCCC1)[C@H]1CCN(C(=O)CC2CCCCC2)C1,-5,0.61
COCc1nc(N2CC(O)C2)c2c(-c3ccccc3)csc2n1,6,-0.7
O=C(Nc1ccccc1)N[C@H]1CCc2[nH]cnc2C1,1,-0.17
CC(C)(C)c1ccc(-n2ncc3c2CCC[C@@H]3NCc2ccc(CO)o2)cc1,-19,2.83
CC1CCCCC1CC(=O)N1CCC2(CCCN2C)C1 (stereo unspecified),-5,1.05
CCn1c2c(c(=O)n3ncc(C(=O)N4CCN(c5ccc(F)cc5)CC4)c13)CNCC2,-7,0.93
CC1CCN(S(=O)(=O)N2CCN(CC(=O)Nc3cc(Cl)cc(Cl)c3)CC2)CC1,-1,0.25
COc1ccc(C(C)C)cc1CN1CC[C@@H](O)C[C@H]1C(=O)O,-12,1.57
Oc1cccc(CN2CCC3(CC2)C[C@H](c2ccccc2)CN(C2CC2)C3)c1,76,-2.68
O=C(c1ccc2nc(-c3ccccc3)cn2c1)N1CCCCC1,-1,0.12
CCc1nn(C)cc1CNc1cc(Br)cc(C)c1NC(=O)OC(C)(C)C,2,-0.21
Cc1ccc(-c2nc(NCc3ccco3)n(C(=O)CCc3ccccc3)n2)cc1,-14,1.54
O=C(NC(Cc1ccccc1)[C@H]1C[C@H](O)C1)c1cnc[nH]1 (stereo partly specified),-12,1.63
N=C(NC(=O)c1ccccc1)Nc1nc2ccccc2s1,-11,0.96
